# Source: PubChem BioAssay AID1477 (National Center for Advancing Translational Sciences (NCATS), 2009)
# Hit rate of the full screen: of about 230,000 compounds, fewer than 10 were called active. This list was built around the results that the source calls inconclusive (neither active nor inactive); the mix of calls is not that of the screen. Calls come from the whole dose curve; as a rule, active = well fitted curve in the direction sought with a large enough effect; inconclusive = small, poorly fitted or top-dose-only effect, or effect the other way, or another doubt; inactive = no such curve, though single readings can be large or run the other way. No potency is given beside an inconclusive call; the fits are too rough.
# Biological target: Runt-related transcription factor 1 (Homo sapiens) + Core-binding factor subunit beta (Homo sapiens) (UniProt Q01196+Q13951)
# Assay: qHTS Assay for Compounds Blocking the Interaction Between CBF-beta and RUNX1 for the Treatment of Acute Myeloid Leukemia; for activity, negative = inhibition: % of control where 0% means no effect
# Settings: AlphaScreen CBFb-His/RUNX1-biotin binding, biochemical; activity, negative = inhibition: at 59.8 µM (top of the series) unless noted
# Outline: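 AlphaScreen proximity signal reports loss of binding between His-tagged CBF-beta and biotin-labelled RUNX1, each at 30 nM. Proteins are pre-associated for 20 minutes, compounds added for 15 minutes, then beads for 90 minutes, all at ambient temperature.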
# UniProt Q01196, sequence (Q01196 whole entry, looked up): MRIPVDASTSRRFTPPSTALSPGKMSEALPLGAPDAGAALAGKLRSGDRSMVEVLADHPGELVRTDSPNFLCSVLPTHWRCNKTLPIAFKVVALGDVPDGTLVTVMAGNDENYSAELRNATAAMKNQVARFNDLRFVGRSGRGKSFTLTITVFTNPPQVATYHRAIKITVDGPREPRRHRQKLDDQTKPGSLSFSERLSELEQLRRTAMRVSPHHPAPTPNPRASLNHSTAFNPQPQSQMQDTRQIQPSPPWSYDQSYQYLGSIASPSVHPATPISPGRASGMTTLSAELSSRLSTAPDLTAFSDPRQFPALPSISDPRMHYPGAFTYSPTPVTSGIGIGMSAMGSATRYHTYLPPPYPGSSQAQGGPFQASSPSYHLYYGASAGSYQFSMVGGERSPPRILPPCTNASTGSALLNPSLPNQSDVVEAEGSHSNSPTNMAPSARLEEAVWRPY
# UniProt Q01196, sequence (Q13951 whole entry, looked up): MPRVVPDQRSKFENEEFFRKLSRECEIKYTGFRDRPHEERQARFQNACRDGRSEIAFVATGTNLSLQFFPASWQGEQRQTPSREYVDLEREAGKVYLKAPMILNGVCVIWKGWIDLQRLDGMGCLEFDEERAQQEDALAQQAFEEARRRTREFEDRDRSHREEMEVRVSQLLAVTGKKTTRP
Compound,Potency,"activity, negative = inhibition"
Cc1cc(N=Nc2ccccc2C)ccc1N,"inconclusive [inhibitor, partial curve]",–
Nc1ccccc1N,"inconclusive [inhibitor, partial curve]",–
COC(=O)C1=C(C(=O)OC)[C@@H]2N(C)c3ccc(OC)cc3[C@@]23C[C@@H](C(=O)OC)N(S(=O)(=O)c2ccc(C)cc2)C3=N1,–,inactive: -0.0406% [at 13.1 µM]
CC(C)c1cc(NC(=O)c2ccccc2)cc(C(C)C)c1O,"inconclusive [inhibitor, single point]",–
O=C1ON=C(c2ccccc2)/C1=C/c1ccc(-c2ccccc2[N+](=O)[O-])o1,"inconclusive [inhibitor, single point]",–
O=c1ccn(Cc2ccccc2)c(=O)n1Cc1ccccc1,inactive,–
COc1ccc(CNc2nc3ccccc3n2CCN2CCCCC2)c(OC)c1,"inconclusive [inhibitor, single point]",–
COc1ccc(-c2cc(C)nc3c(-c4ccccc4)cnn23)cc1,"inconclusive [activator, partial curve]",–
CCN(C(=O)COC(=O)c1cncc(Br)c1)C1CCS(=O)(=O)C1 (stereo unspecified),inactive,–
CCCc1nc2c(C)cc(-c3nc4ccccc4n3C)cc2n1Cc1ccc(-c2ccccc2C(=O)O)cc1,"inconclusive [inhibitor, single point]",–
N#C/C(=N/Nc1ccc([N+](=O)[O-])cc1)C(=N)N1CCCCC1,"inconclusive [inhibitor, single point]",–
S=C([S-])NCCNC(=S)[S-].[Zn+2],"inconclusive [inhibitor, single point]",–
O=C(/C(=C(\O)c1ccccc1)c1ncc[nH]1)c1ccccc1,inactive,–
CC1CCc2sc(C(=O)NN)cc2C1 (stereo unspecified),"inconclusive [activator, full curve]",–
CCN1CCCC1Cn1c(-c2ccccc2)nc2c(NCc3ccccc3)nc(C)nc21 (stereo unspecified),inactive,–
Cn1c(SCC(=O)N2CCCc3ccccc32)nnc1-c1c[nH]c2ccccc12,inactive,–
Nc1ccc(Cl)cc1N,"inconclusive [inhibitor, single point]",–
Cc1[nH][nH]c(=O)c1C(c1ccc(-c2cccc(Cl)c2)o1)c1c(C)[nH][nH]c1=O,inactive,–
CC(C)CNC(=O)COC(=O)c1c2c(nc3ccccc13)/C(=C/c1cccs1)CC2,"inconclusive [activator, partial curve]",–
Cc1c2oc3c(C)ccc(C(=O)N[C@@H]4C(=O)N[C@H](C(C)C)C(=O)N5CCC[C@H]5C(=O)N(C)CC(=O)N(C)[C@@H](C(C)C)C(=O)O[C@@H]4C)c3nc-2c(C(=O)N[C@@H]2C(=O)N[C@H](C(C)C)C(=O)N3CCC[C@H]3C(=O)N(C)CC(=O)N(C)[C@@H](C(C)C)C(=O)O[C@@H]2C)c(N)c1=O,inactive,–
Cc1ccc(C(=O)CNc2ccc(Br)cc2)cc1,inactive,–
CCOC(=O)C1=C(c2ccccc2)c2ccc(OC)cc2N(S(=O)(=O)C(F)(F)F)C1C(=O)OCC (stereo unspecified),"inconclusive [activator, partial curve]",–
O=C(CSCc1ccc(Cl)cc1)N/N=C/c1ccco1,inactive,–

Compound,Potency,"activity, negative = inhibition"
CCOC(=O)c1sc(Nc2ccc(OCC)cc2)nc1C,inactive,–
Cc1cc(=O)[nH]c(-n2[nH]c(C)cc2=O)n1,"inconclusive [inhibitor, single point]",–
Cc1cc(C)n(/N=C/c2ccc(C(C)C)cc2)c(=O)c1C#N,"inconclusive [activator, single point]",–
CC(C)c1ccccc1NC(=S)N1CCN(Cc2ccc3c(c2)OCO3)CC1,inactive,–
CCCN1C(=O)/C(=C\c2nc3ccccc3c(=O)[nH]2)c2ccccc21,inactive,–
COc1ccc(CCNC(=O)CSc2nc(C)nc3c2c(=O)n(C)c(=O)n3C)cc1OC,inactive,–
Oc1ccc(N2CCN(c3nc(-c4cccs4)nc4ccccc34)CC2)cc1,"inconclusive [inhibitor, single point]",–
O[C@H](CCCN1CCN(c2ncc(F)cn2)CC1)c1ccc(F)cc1,"inconclusive [activator, partial curve]",–
O=[N+]([O-])c1ccc(Sc2ccccc2Cl)nc1,"inconclusive [inhibitor, partial curve]",–
O=C1C(O)=C(O)C(=O)C(O)=C1O,"inconclusive [inhibitor, partial curve]",–
COC[C@H]1OC(=O)c2coc3c2[C@@]1(C)C1=C(C3=O)C2CCC(=O)[C@@]2(C)C[C@H]1OC(C)=O (stereo partly specified),inactive,–
CCOC(=O)C(Oc1ccc2c(-c3ccccc3)cc(=O)oc2c1)c1ccccc1 (stereo unspecified),"inconclusive [activator, single point]",–
CN(Cc1ccccc1)c1oc(COc2ccccc2F)nc1C#N,"inconclusive [inhibitor, partial curve]",–
Fc1ccc(NC(=S)NCCc2ccc(Cl)cc2)cc1,inactive,–
N#Cc1ccc(C(=O)Nc2cc(S(=O)(=O)Nc3ccc(Cl)cc3)ccc2N2CCCCC2)cc1,inactive,–
Cc1ccccc1NC(=S)C1=C(O)c2sccc2N(C)S1(=O)=O,inactive,–
CCCn1c2ccccc2c2nnc(SCC(=O)OC)nc21,inactive,–
Cc1nc2ncccn2c1-c1csc(NCc2ccco2)n1,"inconclusive [inhibitor, single point]",–
COc1ccc(-c2cc3ccc(OCc4nn[nH]n4)cc3oc2=O)cc1,"inconclusive [activator, single point]",–
Cc1ccc(OCC(=O)Nn2c(C)nc3ccccc3c2=O)c(C(C)C)c1,"inconclusive [inhibitor, single point]",–
O=C1NC(=S)/C(=C\c2ccc(-c3ccccc3Cl)o2)S1,"inconclusive [inhibitor, single point]",–
Fc1ccccc1CSc1nnc(-c2ccccc2)o1,"inconclusive [activator, single point]",–
H-INPIYRLRY-NH2,"inconclusive [activator, partial curve]",–
